This is one part of the list.
Experiments:
Test in all cases: glycan array binding signal (z-score within array); higher = stronger binding
Conditions in all cases: glycan notation: IUPAC condensed, linker removed
[1] = target: Neu5Ac(a2-3)Gal(b1-4)GlcNAc(b1-3)Gal(b1-4)GlcNAc(b1-3)Gal(b1-4)GlcNAc
In short: (§1)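 From the Consortium for Functional Glycomics database, 3228 arrays were curated, keeping only those whose protein sequence was available. Binding is given as a within-array Z-score averaged across arrays sharing a protein sequence and across linkers. Negative Z-scores can be read as non-binding.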

[2] = target: Neu5Ac(a2-3)Gal(b1-4)GlcNAc(b1-3)Gal(b1-4)GlcNAc(b1-3)Gal(b1-4)GlcNAc(b1-2)Man(a1-3)[Neu5Ac(a2-3)Gal(b1-4)GlcNAc(b1-3)Gal(b1-4)GlcNAc(b1-3)Gal(b1-4)GlcNAc(b1-2)Man(a1-6)]GalNAc
In short: as §1

[3] = target: Neu5Ac(a2-3)Gal(b1-4)GlcNAc(b1-3)Gal(b1-4)GlcNAc(b1-3)GalNAc
In short: as §1

[4] = target: Neu5Ac(a2-3)Gal(b1-4)GlcNAc(b1-3)Gal(b1-4)GlcNAc(b1-3)[Neu5Ac(a2-3)Gal(b1-4)GlcNAc(b1-3)Gal(b1-4)GlcNAc(b1-6)]GalNAc
In short: as §1

[5] = target: Neu5Ac(a2-3)Gal(b1-4)GlcNAc(b1-3)Gal(b1-4)GlcNAc(b1-6)[Gal(b1-3)]GalNAc
In short: as §1

[6] = target: Neu5Ac(a2-3)Gal(b1-4)GlcNAc(b1-3)Gal(b1-4)[Fuc(a1-3)]GlcNAc
In short: as §1

[7] = target: Neu5Ac(a2-3)Gal(b1-4)GlcNAc(b1-3)GalNAc
In short: as §1

[8] = target: Neu5Ac(a2-3)Gal(b1-4)GlcNAc(b1-3)[Neu5Ac(a2-3)Gal(b1-4)GlcNAc(b1-6)]GalNAc
In short: as §1

[9] = target: Neu5Ac(a2-3)Gal(b1-4)GlcNAc(b1-6)GalNAc
In short: as §1

[10] = target: Neu5Ac(a2-3)Gal(b1-4)GlcNAc(b1-6)[Gal(b1-3)]GalNAc
In short: as §1

[11] = target: Neu5Ac(a2-3)Gal(b1-4)GlcNAc(b1-6)[Neu5Ac(a2-3)Gal(b1-3)]GalNAc
In short: as §1

[12] = target: Neu5Ac(a2-3)Gal(b1-4)GlcNAc6S
In short: as §1

[13] = target: Neu5Ac(a2-3)Gal(b1-4)[Fuc(a1-3)]GlcNAc
In short: as §1

[14] = target: Neu5Ac(a2-3)Gal(b1-4)[Fuc(a1-3)]GlcNAc(b1-2)Man
In short: as §1

[15] = target: Neu5Ac(a2-3)Gal(b1-4)[Fuc(a1-3)]GlcNAc(b1-3)Gal
In short: as §1

[16] = target: Neu5Ac(a2-3)Gal(b1-4)[Fuc(a1-3)]GlcNAc(b1-3)Gal(b1-4)GlcNAc
In short: as §1

[17] = target: Neu5Ac(a2-3)Gal(b1-4)[Fuc(a1-3)]GlcNAc(b1-3)Gal(b1-4)[Fuc(a1-3)]GlcNAc(b1-3)Gal(b1-4)[Fuc(a1-3)]GlcNAc
In short: as §1

[18] = target: Neu5Ac(a2-3)Gal(b1-4)[Fuc(a1-3)]GlcNAc(b1-3)GalNAc
In short: as §1

[19] = target: Neu5Ac(a2-3)Gal(b1-4)[Fuc(a1-3)]GlcNAc(b1-6)[Gal(b1-3)]GalNAc
In short: as §1

[20] = target: Neu5Ac(a2-3)Gal(b1-4)[Fuc(a1-3)]GlcNAc(b1-6)[Neu5Ac(a2-3)Gal(b1-3)]GalNAc
In short: as §1

[21] = target: Neu5Ac(a2-3)Gal(b1-4)[Fuc(a1-3)]GlcNAc6S
In short: as §1

[22] = target: Neu5Ac(a2-3)Gal6S(b1-4)GlcNAc
In short: as §1

[23] = target: Neu5Ac(a2-3)Gal6S(b1-4)[Fuc(a1-3)]GlcNAc
In short: as §1

Neu5Ac(a2-3)GalNAc = target: Neu5Ac(a2-3)GalNAc
In short: as §1

[24] = target: Neu5Ac(a2-3)GalNAc(b1-4)GlcNAc
In short: as §1

[25] = target: Neu5Ac(a2-3)[GalNAc(b1-4)]Gal(b1-4)Glc
In short: as §1

[26] = target: Neu5Ac(a2-3)[GalNAc(b1-4)]Gal(b1-4)GlcNAc
In short: as §1

[27] = target: Neu5Ac(a2-3)[GalNAc(b1-4)]Gal(b1-4)GlcNAc(b1-3)GalNAc
In short: as §1

[28] = target: Neu5Ac(a2-3)[Neu5Ac(a2-6)]GalNAc
In short: as §1

Neu5Ac(a2-6)Gal = target: Neu5Ac(a2-6)Gal
In short: as §1

[29] = target: Neu5Ac(a2-6)Gal(b1-3)GlcNAc(b1-3)[Gal(b1-4)GlcNAc(b1-6)]Gal(b1-4)Glc
In short: as §1

Neu5Ac(a2-6)Gal(b1-4)Glc = target: Neu5Ac(a2-6)Gal(b1-4)Glc
In short: as §1

[30] = target: Neu5Ac(a2-6)Gal(b1-4)GlcNAc
In short: as §1

[31] = target: Neu5Ac(a2-6)Gal(b1-4)GlcNAc(b1-2)Man
In short: as §1

B1: HHA (Hippeastrum hybrid) (protein)
chain: MQQDCNLVLYDVDKPIWASNTGGLARDCHLNMQSDGNLVVYAPRNQVIWASNTQGENGNYVCILQKDRNVVIYGTARWATGTNIHGAGIVGVPGSAPQNTTAEMIKLVRKYLITK
- glycan array binding signal (z-score) [1]: -0.185
- glycan array binding signal (z-score) [2]: -0.001
- glycan array binding signal (z-score) [3]: -0.188
- glycan array binding signal (z-score) [4]: -0.187
- glycan array binding signal (z-score) [5]: -0.16
- glycan array binding signal (z-score) [6]: -0.207
- glycan array binding signal (z-score) [7]: -0.156
- glycan array binding signal (z-score) [8]: -0.205
- glycan array binding signal (z-score) [9]: -0.212
- glycan array binding signal (z-score) [10]: -0.208
- glycan array binding signal (z-score) [11]: -0.215
- glycan array binding signal (z-score) [12]: -0.158
- glycan array binding signal (z-score) [13]: -0.215
- glycan array binding signal (z-score) [14]: -0.201
- glycan array binding signal (z-score) [15]: -0.222
- glycan array binding signal (z-score) [16]: -0.211
- glycan array binding signal (z-score) [17]: -0.174
- glycan array binding signal (z-score) [18]: -0.189
- glycan array binding signal (z-score) [19]: -0.179
- glycan array binding signal (z-score) [20]: -0.168
- glycan array binding signal (z-score) [21]: -0.221
- glycan array binding signal (z-score) [22]: -0.219
- glycan array binding signal (z-score) [23]: -0.214
- glycan array binding signal (z-score) (Neu5Ac(a2-3)GalNAc): -0.117
- glycan array binding signal (z-score) [24]: -0.186
- glycan array binding signal (z-score) [25]: -0.22
- glycan array binding signal (z-score) [26]: -0.192
- glycan array binding signal (z-score) [27]: -0.013
- glycan array binding signal (z-score) [28]: -0.215
- glycan array binding signal (z-score) (Neu5Ac(a2-6)Gal): -0.213
- glycan array binding signal (z-score) [29]: -0.203
- glycan array binding signal (z-score) (Neu5Ac(a2-6)Gal(b1-4)Glc): -0.211
- glycan array binding signal (z-score) [30]: -0.211
- glycan array binding signal (z-score) [31]: -0.212

Source: the supplement of paper PMC8728848
